Measurements: the antibiotic and cytotoxicity screens of Wong et al. (2023)
This is one part of the list.

Columns and labels:
HSkMC = human skeletal muscle cells; experiment: cytotoxicity call (relative viability < 0.9); conditions: 10 µM
HepG2 = experiment: cytotoxicity call (relative viability < 0.9); conditions: 10 µM
S. aureus RN4220 = experiment: growth inhibition call (relative growth <= 0.2); conditions: 50 µM

| SMILES | cytotoxicity call (HSkMC) | cytotoxicity call (HepG2) | growth inhibition call (S. aureus RN4220) |
| --- | --- | --- | --- |
| COc1cc(NS(=O)(=O)c2ccc(N)cc2)nc(OC)n1 | inactive | inactive | inactive |
| C[C@@H]1CNC[C@H](C)N1 | inactive | inactive | inactive |
| Cc1ccc(S(=O)(=O)Nc2ccc3c(c2)C(=O)N([C@H](C)CO)C[C@@H](C)[C@H](CN(C)S(=O)(=O)c2ccc(C)cc2)OCCCC[C@@H](C)O3)cc1 | inactive | inactive | inactive |
| Cc1ccc(S(=O)(=O)N(C)C[C@@H]2Oc3cc(Br)ccc3S(=O)(=O)N([C@@H](C)CO)C[C@@H]2C)cc1 | inactive | inactive | inactive |
| O=C(Cc1ccsc1)N(Cc1ccc2c(c1)OCO2)Cc1cc2cc3c(cc2nc1N1CCOCC1)CCC3 | inactive | inactive | inactive |
| CCS(=O)(=O)c1ccccc1C(N)=O | inactive | inactive | inactive |
| C[C@H]1CN([C@@H](C)CO)S(=O)(=O)c2ccc(C#CC3(O)CCCC3)cc2O[C@H]1CN(C)C(=O)Cc1ccccc1 | inactive | inactive | inactive |
| C[C@@H](O)Cn1c(=N)n(C)c2ccccc21 | inactive | inactive | inactive |
| Cc1ccc(S(=O)(=O)Nc2ccc3c(c2)C(=O)N([C@H](C)CO)C[C@@H](C)[C@H](CN(C)C(=O)C2CCCCC2)OCCCC[C@@H](C)O3)cc1 | inactive | inactive | inactive |
| CN(C)CC(=O)N1CC(=O)N2[C@H](C1)[C@@H](c1ccc(C#Cc3cccnc3)cc1)[C@@H]2CO | inactive | inactive | inactive |
| Cc1noc(C)c1S(=O)(=O)N(C)C[C@@H]1OCCCC[C@@H](C)Oc2ccc(NC(=O)Nc3ccccc3)cc2C(=O)N([C@@H](C)CO)C[C@@H]1C | inactive | inactive | inactive |
| C[C@H]1CN([C@@H](C)CO)C(=O)c2cc(C#CC3CCCC3)cnc2O[C@@H]1CN(C)C(=O)Cc1ccccn1 | inactive | inactive | inactive |
| C[C@@H]1CCCCO[C@@H](CN(C)C(=O)C2CCCCC2)[C@@H](C)CN([C@H](C)CO)C(=O)c2cc(NC(=O)C3CCCCC3)ccc2O1 | inactive | inactive | inactive |
| C[C@H]1CN([C@@H](C)CO)C(=O)Cc2cc(NS(C)(=O)=O)ccc2O[C@H]1CN(C)S(=O)(=O)c1cn(C)cn1 | inactive | inactive | inactive |
| COc1ccc([Si](C)(C)[C@H]2[C@H](CCO)O[C@@]3(C(=O)N(Cc4ccccc4)c4ccc(N5C(=O)c6ccccc6Oc6ccccc65)cc43)[C@@H]2C)cc1 | inactive | active | inactive |
| C[C@H](CO)N1C[C@H](C)[C@@H](CN(C)S(=O)(=O)c2cccs2)Oc2ccc(NC(=O)CCN3CCOCC3)cc2C1=O | inactive | inactive | inactive |
| CC(C)(C)C(=O)OCOP(=O)(COCCn1cnc2c(N)ncnc21)OCOC(=O)C(C)(C)C | inactive | active | inactive |
| C[C@H]1CN([C@@H](C)CO)C(=O)c2cccc(NC(=O)C3CC3)c2O[C@H]1CN(C)S(=O)(=O)c1cn(C)cn1 | inactive | inactive | inactive |
| COc1ccc(CNC(=O)c2cc3c(c(-c4cccc(-c5cccc(C#N)c5)c4)n2)[C@@H](CCO)N([S@](=O)C(C)(C)C)C3)cc1 | inactive | inactive | inactive |
| C[C@H]1CN([C@@H](C)CO)C(=O)c2cccc(NC(=O)CCCCCC(=O)Nc3ccccc3N)c2O[C@H]1CN(C)Cc1ccc(-c2ccccc2)cc1 | inactive | inactive | inactive |
| C=CCOC(=O)[C@@H]1[C@H]2C(=O)O[C@H](c3ccccc3)[C@H](c3ccccc3)N2[C@H](c2ccc(OCCOC(=O)[C@H]3C[C@H]4C(=O)N5CCC[C@H]5C(=O)N4[C@H]3c3ccc(O)cc3)cc2)[C@@]12C(=O)Nc1ccccc12 | inactive | inactive | inactive |
| CCCOc1cc(C)c(N)cc1C | inactive | inactive | inactive |
| CC(C)(C)OC(=O)N1CC(O)C1 | inactive | inactive | inactive |
| Cc1ccc(S(=O)(=O)N(C)C[C@@H]2OCCCC[C@H](C)Oc3ccc(NC(=O)Nc4ccc(C(F)(F)F)cc4)cc3C(=O)N([C@@H](C)CO)C[C@@H]2C)cc1 | inactive | inactive | inactive |
| C[C@H]1CCCCO[C@H](CN(C)Cc2ccc(C(=O)O)cc2)[C@@H](C)CN([C@@H](C)CO)C(=O)c2cc(NC(=O)Nc3ccc4c(c3)OCO4)ccc2O1 | inactive | inactive | inactive |
| C[C@H](CO)N1C[C@H](C)[C@@H](CN(C)S(=O)(=O)c2ccc(F)cc2)Oc2c(NS(=O)(=O)c3cccs3)cccc2C1=O | inactive | inactive | inactive |
| COc1ccccc1S(=O)(=O)N(C)C[C@H]1Oc2ncc(Br)cc2C(=O)N([C@H](C)CO)C[C@H]1C | inactive | inactive | inactive |
| CC(C)NC(=O)N(C)C[C@H]1OCCCC[C@@H](C)Oc2ccc(NC(=O)Nc3cccc4ccccc34)cc2C(=O)N([C@@H](C)CO)C[C@H]1C | inactive | inactive | inactive |
| CCCCCNC(=N)NN=Cc1c[nH]c2ccc(OC)cc12.O=C(O)C=CC(=O)O | inactive | inactive | inactive |
| O=C(O)[C@H]1C2C(=O)N(C3CC3)C[C@]23C=C[C@H]1O3 (stereo not given in full) | inactive | inactive | inactive |
